Source: the supplement of paper PMC11417369
Some of the results follow.

Test system: PfAP2-HC AP2 domain (GST-tagged)
Experiment: gcPBM binding intensity (ln(normalized median fluorescence intensity)); higher = stronger DNA binding
Procedure, shortened: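 An Agilent 4 × 180k array of primer-extended double-stranded 36-bp intergenic genomic probes, with negative controls, was incubated for 1 h with GST-tagged P. falciparum DNA-binding domains expressed in E. coli. Alexa488 anti-GST antibody detected bound protein, scanned at 488 nm. Binding intensity is the highest Masliner-normalised natural-log median intensity across replicate spots of either probe orientation.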

Sequence | gcPBM binding intensity (ln)
AATGGATGGTCCAAATGTACATATATATATATATAT [XGTACX_site4800] | 9.85
AGAAAAAATAAAAATAGTACTCAAAAAATTATGAAT [XGTACX_site4908] | 9.68
ACATAAATAATAAAAACACACATATGTACAGATATA [CACACA_site5112] | 10.2
ATGTAGATATATATATGTACTAATTAGTAGTTTACG [XGTACX_site6275] | 10
AATGGTACATGATACACACACGCACATATATATATT [CACACA_site3425] | 10.4
AGAAAAAAAAAACACACACACACACCCTCAATATAA [CACACA_site39] | 10.5
AAATAGATAAACTAAACACACAAAAAAAAAAAAAAT [CACACA_site1179] | 10.2
TTATATGAAAAAATATGTACGTATAATGAGAAATAT [XGTACX_site8987] | 9.74
GTTATAAATGCATATACACACATACGTACATACATA [CACACA_site7655] | 9.89
TCATTAATCAGGTATGCATGCATAACTATTAAAAAT [TGCATGCA_site90] | 9.59
TCTTTTTTTTTTATTTGTACTTATTTTTTTCAAAAA [XGTACX_site3403] | 9.68
AAAATAACGAGTCAAACACACATATTTATATTTATA [CACACA_site7050] | 9.86
TAATATAACTACATAACACACGAAAATATATGAATC [CACACA_site3628] | 10.1
ACTTATAAAATAACATGTACAAATATTTATTATATA [XGTACX_site133] | 9.51
AATATTTTTTTATAAACACACATATATATAAATATA [CACACA_site3524] | 9.53
TAATAATTTATATATGCATGTCAAAATAATATTAAA [TGCATGCA_site12] | 9.35
TATATAAATATAATATGTACATATAATATGTATATA [XGTACX_site8120] | 9.69
TATATATTTTTATGTGTGCACTGTTTCATAAAAGAA | 9.61
AAAAAAAAAAGGTGTACATGCAAAATAAATTCTTAA [TGCATGCA_site556] | 9.86
TATGGTAACATATGCTGTACAATATAATATGTTTAA [XGTACX_site1601] | 9.59
TAAACATAAATATACACACAAACATATATGTATTTT [CACACA_site1214] | 9.89
AAATTATAAATACCTACACACTTATCAAAATAAATT [CACACA_site5280] | 9.83
AAAAAAAAAAAACACACACACACACCGACAAAATAT [CACACA_site8411] | 10.8

Sequence | gcPBM binding intensity (ln)
GATGATATATATTAGCGTACATGTATATATACCATT [XGTACX_site6404] | 9.7
TAAATGAGAAGGACTGCACACTAAAATGGAAGGAGA [CACACA_site8449] | 9.92
TATTTGTATATATGTGTGCACGTATAATCCATTAAA [GTGCAC_site9569] | 9.71
AAAATTTCAAATAACACACACTAATATATATCTGTA [CACACA_site4904] | 10.1
AATGAATATAGTACTGAATGTAATTTAAGGTTTTCC [CACACA_negctrl_site1548] | 9.76
GCATAAATCAAACACACACACATATATATATATATA [CACACA_site2422] | 10.2
TATAATGGATGCTAGCTGCACTAATAAGCAAAAATA | 9.6
TATATTAAATATTACACACATACATTTAGTGTCAAA [CACACA_site1990] | 9.84
TGGGAGCACAGACACACACACACACCGATATATATA [CACACA_site8001] | 11.3
AACAAAATAAATGTATGTACATATATATATATATAT [XGTACX_site7974] | 9.99
GTGGACGAAATAGTTGTAAATTTATGTGCAAACCTC [XGTACX_negctrl_site564] | 9.71
ATATATATATCATATTGTACATACTTGTATTTATAT [XGTACX_site2432] | 9.89
TCCTTACCTATTAAAGCATGCTCGAATATATATTTT [TGCATGCA_site53] | 9.74
CACACAATGGCTAGCTGTACATAATATATATCTACA [XGTACX_site4691] | 9.62
TAAAAACAAAAATGTTGTACATAATATAAAACAATT [XGTACX_site6380] | 9.76
TATATAAATATACAAACACACATACAAACATATATA [CACACA_site4754] | 10.2
GAAAATAAAATAAATGCATGTAAATTTAATGTAATG [TGCATGCA_site996] | 9.87
AAAAAAAACGAACACACACACAAATATGTAAAAATA [CACACA_site6673] | 10.5
ATATATATATTTACATGTACACATCTATATATAAAC [XGTACX_site5581] | 9.84
TTTTTTTTTCATTATTGTACATTGAAACTTCATTTT [XGTACX_site6041] | 9.84
AAAAAAAAAAAATGTGCATGCTATATATATATATAT [TGCATGCA_site727] | 10
GAATATAAACATATTACACACATCTATCTGTACATT [CACACA_site5114] | 9.97
TGGTATCAAAAGAATACACACACACCGACATATATA [CACACA_site9265] | 11.1

Sequence | gcPBM binding intensity (ln)
TACATACATACATACACACACACATATAAATACATA [CACACA_site4626] | 10.6
GTTTTATTTATTTCATGTACACAAAAAAGGTTTTAA [XGTACX_site6525] | 9.48
TCTCTAACTTTTAATACACACAAATAAATAAATAAA [CACACA_site6245] | 9.53
AATACATATATATATTGTACATATAGGGAAAAATTA [XGTACX_site2275] | 9.96
AAAATAAAATAATAAAATAAAATAATAATAAAATAA [TGCATGCA_negctrl_site401] | 9.73
GTGGGAAACATAAACACACACAAAAAGAAAAAATAG [CACACA_site4810] | 10.2
ATATACGCATTAATAACACACAATATGATAACAAAT [CACACA_site3623] | 10.2
AATATAATCTTTCAAAAGAAAAAGACTTCATGAAAA [CACACA_negctrl_site1331] | 9.35
AAAATGTATGGAATGCTCTTTTTTAAGTATTATATA [GTGCAC_negctrl_site175] | 9.5
TATTTTAATATTTGTAGTACAGATTGAAATGACGAA [XGTACX_site4805] | 9.56
TTTATTTATTATTAAAGTACTAAAATATATTATTAT [XGTACX_site4887] | 9.39
ATACGTATTTTCTTTTGTACATATATATAAAATATT [XGTACX_site2675] | 9.7
TATATTTATTAGTTTCGTACGTACAAAGTTATTTTT [XGTACX_site8847] | 9.7
AATATTGCACCATTTTGTACATAATATATTCAAATA [XGTACX_site475] | 9.65
ACAAAATTGATATATGCACACATATATATATTAAAT [CACACA_site8152] | 9.85
GTAGGTTTATATTGTAGTACATACAAACGTTAACAA [XGTACX_site5476] | 9.71
TATTTTGTTCTTTCCACACACAAATACCTATCTTGT [CACACA_site7833] | 10.2
TTTTTTTTTTGATGTTGTACATATATATTATATAAT [XGTACX_site2765] | 9.63
GCTATTTATTTATATTGTACTTTTTTTTTTTTTTTT [XGTACX_site3624] | 9.59
TTTTTTTTTGGGGGTGCATGCAAGACATATATTTAA [TGCATGCA_site228] | 9.65
CATACATATATATATACACACATACATATATATACA [CACACA_site8165] | 10.4
ATTCGTGAACTAGCCAAACACACGAAAAAAAAAAAA [CACACA_site3342] | 9.73
ATGTAACATAGGAAATGTACATATAAATATAATTTA [XGTACX_site6452] | 9.77

Sequence | gcPBM binding intensity (ln)
TTTTATTGATTATTCATAAATATGCTATTCATCTAA [CACACA_negctrl_site1084] | 9.6
TTAGTATATTTTTCCTGTACGTACTCAGATACAAAT [XGTACX_site7397] | 9.6
TACACATTATGTATCATACACACAAATAAATATATA [CACACA_site608] | 9.8
TTAAATAATTTTTAATGTACATTAAATTTATTATTA [XGTACX_site261] | 9.36
AAAAAGAATATAAGTAGTACAGTGCATATAATAATT [XGTACX_site617] | 10.2
TTTTACTCTTAAAATAATAAAAAATATTCACATTTA [CACACA_negctrl_site1508] | 9.19
AATTAATGTTTTGTCACACAGTATGATTATATATAT [CACACA_site6143] | 9.74
TATAATTTTTTTAATACACACAAATATTTATATATA [CACACA_site3042] | 9.46
AAGAGAAATGGGCACACACACACATATTATATATAT [CACACA_site1531] | 10.8
TATATATACATATACGCATGTAAATTCAAAAGTAAA [TGCATGCA_site956] | 9.66
TTCTCCATCAGATACTGTACATAATATATATAATAT [XGTACX_site8827] | 9.78
TGTATAACCTGTGTTACACACATTAGAATTTATATA [CACACA_site6393] | 9.72
GCATCATTTATTTGCACACCTATTATATACTTTTTA [CACACA_site2098] | 9.96
TACATAAACTTTATAACACACACTTATATATATATA [CACACA_site1106] | 9.94
TATATAAAGATATATACACACAAAAAAAAAAAAAAA [CACACA_site6778] | 9.7
AATAATAACAAATGAACACACATATATATGAGCAAA [CACACA_site2121] | 9.96
TTGATATAAAAAGAAAGTACTTTATAGATGTTTATT [XGTACX_site8144] | 9.64
TATAAAAATATATATATATATATATATATATATATA [TGCATGCA_negctrl_site541] | 9.85
TTCTACGTTTTAAAAAAAAAAAAAAAAAAAAAAAAA [XGTACX_negctrl_site6] | 9.16
AATGTATTATGTAATAGTACGTATAATATCTTATTT [XGTACX_site3] | 9.69
